Source: publication PMC6919601, “Identification of Plasmodium dipeptidyl aminopeptidase allosteric inhibitors by high throughput screening” (PLoS ONE, 2019)
In all, about 110,000 compounds went through this assay and about 230 (0.21%) showed an effect of 50% or more. The list shows a part of the results.

Target: DPAP1 (Plasmodium falciparum, UniProt Q8IIJ9)
Experiment: primary screen, percent inhibition; read by cleavage of a fluorogenic dipeptide substrate; higher = more effect of the substance
Set-up: species or system P. falciparum D10 trophozoite lysates; single well
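Further: 30 min substrate incubation versus DMSO and 10 µM JCP410 controls.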

Chain of DPAP1 (Q8IIJ9 whole entry, looked up): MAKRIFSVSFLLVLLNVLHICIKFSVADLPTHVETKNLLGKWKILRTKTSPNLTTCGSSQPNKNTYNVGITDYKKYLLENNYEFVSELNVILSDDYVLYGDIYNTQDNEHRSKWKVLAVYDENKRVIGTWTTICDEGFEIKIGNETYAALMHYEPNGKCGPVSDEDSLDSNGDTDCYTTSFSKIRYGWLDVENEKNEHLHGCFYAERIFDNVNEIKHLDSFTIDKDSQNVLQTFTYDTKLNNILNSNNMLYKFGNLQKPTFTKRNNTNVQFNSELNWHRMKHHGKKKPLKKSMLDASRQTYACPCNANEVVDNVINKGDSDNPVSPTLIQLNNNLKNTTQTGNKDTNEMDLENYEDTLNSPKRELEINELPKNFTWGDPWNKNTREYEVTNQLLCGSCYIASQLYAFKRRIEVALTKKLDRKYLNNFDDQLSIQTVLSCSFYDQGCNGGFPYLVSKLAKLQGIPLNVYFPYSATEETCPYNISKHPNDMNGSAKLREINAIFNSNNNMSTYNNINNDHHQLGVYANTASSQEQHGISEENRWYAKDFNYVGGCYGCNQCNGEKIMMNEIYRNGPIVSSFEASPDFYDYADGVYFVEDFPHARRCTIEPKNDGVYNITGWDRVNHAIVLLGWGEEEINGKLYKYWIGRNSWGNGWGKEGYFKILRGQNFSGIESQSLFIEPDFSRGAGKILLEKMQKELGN

SMILES	% Inhibition @ 10 uM [%]
Cc1cc(C(=O)N2CCN(C(c3ccccc3)c3ccccc3)CC2)no1	-5.09
Cc1c(C(=O)O)cccc1-c1ccc(/C=C2\SC(=O)N(CC(=O)N3CCOCC3)C2=O)o1	-9.68
O=C(O)CCCC(=O)NCCCc1ccccc1	-8.48
O=Cc1ccc(-c2ccc(Cl)cc2)o1	8.97
Cc1oc(C(C)(C)C)cc1C(=O)NCCNC(=O)c1cc(C(C)(C)C)oc1C	-3.19
Cc1ccc(C[n+]2c3n(c4ccccc42)CC(O)CS3)cc1 (stereo not drawn)	3.66
Cc1noc(NS(=O)(=O)c2ccc(NC(=O)NC3CCCCC3)cc2)c1C	-0.511
O=C(C1CC1c1ccccc1)N1CCN(c2ccccc2)CC1 (stereo not drawn)	-7.46
Cc1ccc(NC(=O)Cn2c(Br)nc3c2c(=O)n(C)c(=O)n3C)cc1	2.95
COC(=O)C1=CN(C(C)C)C=C(C(=O)OC)C1c1cccc(OC)c1OC	0.219
CCn1ncc(Br)c1C(=O)NCc1ccc(OC)c(OC)c1	1.76
CC1CCc2[nH]c3ccc(C(=O)O)cc3c2C1 (stereo not drawn)	0.193
CCOC(=O)CC(=O)c1c[nH]c2ccccc12	4.73
CCOC(=O)N1CCN(C(=O)Cn2nc(-c3ccc(C)cc3)ccc2=O)CC1	3.79
O=C1/C(=C\c2ccc(OCC(=O)N3CCOCC3)cc2)Sc2ccccc21	2.08
COc1ccc(Nc2cc(C)nc3c(C)c(C)cc(N)c23)cc1	-0.312
CCOc1cc(CNC2CC(C)(C)NC(C)(C)C2)ccc1OC	0.9
COC(=O)C1=C(C)OC(N)=C(C#N)C1c1ccc(F)cc1 (stereo not drawn)	0.912
Cc1nc2c3cccnc3nn2c(C)c1CCC(=O)N1CCCCCC1	-1.7
O=C(c1oc(=O)c2ccccc2c1-c1ccccc1)N1CCC(O)CC1	-2.88
Cc1ccn(-c2cccc(-n3ccc(C)n3)n2)n1	-3.25
O=C(O)c1ccccc1NC(=O)C1C2CCC(O2)C1C(=O)O (stereo not drawn)	-5.47
O=C(CSc1nnc2c(n1)[nH]c1ccccc12)Nc1nnc(-c2ccccc2)s1	5.05
Cc1ccc(-c2cc(C(F)(F)F)n3nc(C(=O)Nc4cccnc4Cl)cc3n2)cc1	-2.62
COc1cccc(C2CC(O)=C/C(=N/CCc3ccc(OC)c(OC)c3)C2)c1 (stereo not drawn)	-2.63
O=C(O)c1cc(-c2ccc(F)cc2)nc2ccccc12	5.03

SMILES	% Inhibition @ 10 uM [%]
O=C1NN=C(c2ccccc2O)C1[N+](=O)[O-] (stereo not drawn)	-0.856
C=CCNC(=O)CCCc1nc(-c2ccccc2OC)no1	0.347
CC1=NC(C(F)(F)F)(C(F)(F)F)C2=C(CC(C)(C)CC2=O)N1CC1CCCO1 (stereo not drawn)	-9.16
Cc1onc(-c2ccccc2Cl)c1C(=O)NC(C)(C)C	-3.87
COc1cc(C2CC(=O)N3CN(C)CSC3=C2C#N)cc(OC)c1OC (stereo not drawn)	3.77
CC(=O)N/C(=C\c1ccccc1)C(=O)Nc1cc(Cl)cc(Cl)c1	-3.26
CCN1CCN(C(=O)c2ccc3c(c2)c(C)c(C)n3Cc2ccccc2)CC1	-7.04
CCOC(=O)Nc1cc(NC(=O)OCC)c(C)nc1C	-10.4
N#C/C(=C\c1ccc(-c2cccc(Cl)c2)o1)C(=O)NCc1ccccc1	5.98
CCN1CCCC1CNC(=O)c1ccc(CS(=O)(=O)c2c(Cl)cccc2Cl)o1 (stereo not drawn)	-0.971
O=C1CC(c2ccccc2)CC(=O)C1=CNc1ccccc1Cl (stereo not drawn)	-4.75
O=C(NCC1COc2ccccc2O1)c1cc2c(s1)-c1ccccc1OC2 (stereo not drawn)	1.89
Brc1ccc(OCCCCN2CCOCC2)cc1	0.392
COc1ccc(CN2CCc3c([nH]c4ccccc34)C2)cc1OC	3.03
O=C(c1cc(-c2ccc(Cl)cc2Cl)nc2ccccc12)N1CCOCC1	2.65
CCc1ccc(C(=O)COC(=O)c2cnccn2)cc1	-10.8
Cc1ccc(-c2cc(C(=O)N3CCOCC3)c3cccc(C)c3n2)cc1	-3.33
COCCn1c(SCc2ccc(Cl)cc2)nc2c1c(=O)[nH]c(=O)n2C	-1.37
Cc1cc(N2CCN(C)CC2)nc2ccccc12	-7.02
CCCCSC1=C(C#N)C(=O)NC(c2ccc(OC)cc2)S1 (stereo not drawn)	8.15
COc1cc(-c2nnc3sc(-c4cc5ccccc5o4)nn23)cc(OC)c1OC	4.47
O=C(O)CCCC(=O)Nc1cccc(Cl)c1	-0.807
O=C1CCSc2c1cccc2C(=O)NCCc1ccc(Cl)cc1	-9.67
O=C(Nc1ccc(S(=O)(=O)N2CCCCC2)cc1)c1sc2ccccc2c1Cl	-8.38
C=C(Br)C[C@H](NC(=O)OCc1ccccc1)C(=O)NCC#N	-6.46
